Laboratory results: PubChem BioAssay AID493208 (National Center for Advancing Translational Sciences (NCATS), 2011)
The whole screen tested about 44,000 compounds, of which about 340 (0.77%) were called active. Roughly 5% stayed inconclusive and do not appear here. Calls come from the whole dose curve; as a rule, active = well fitted inhibition curve with a large enough effect; inconclusive = small, poorly fitted or top-dose-only effect; inactive = flat fitted curve, though single readings scatter. Some of the results follow.

test: Acumen qHTS Assay for Inhibitors of the mTORC1 Signaling Pathway in MEF (Tsc2-/-, p53-/-) Cells: Sytravon; settings: phospho-rpS6 immunofluorescence/PI, 24 h; series mostly up to 38.3 µM; activity change, negative = inhibition: at the top concentration;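 note: plate controls were DMSO for no effect and rapamycin for full effect; nearly all actives have a fitted effect of over 50% in size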
How it was run: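 Immunofluorescence of rpS6 phosphorylation in Tsc2-/-, p53-/- MEFs after 24 h compound exposure, normalized to propidium iodide signal. Activity is expressed as % positive cells, thresholded with 7.5 nM rapamycin.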

Activity change, negative = inhibition, inactive:
COc1cc2cc(CNc3ccccc3)c(=O)n(CC(=O)Nc3cc(C)cc(C)c3)c2cc1OC -7.71%
O=C(CCC1N=C2c3ccccc3N=C(SCc3ccc(F)cc3)N2C1=O)NC1CCCCC1 (stereo unspecified) -1.27%
CC(=O)c1ccc(NC(=O)c2nc3nc(C)cc(C(F)F)n3n2)cc1 2.27%
CCOc1ccc(-n2nc(CO)c(C(=O)NCc3cccc(OC)c3)n2)cc1 -13.5%
Cc1cc(C)cc(-n2ccn(CC(=O)Nc3ccccc3F)c(=O)c2=O)c1 7.84%
CSc1ncc(C(=O)Nc2cc(Cl)ccc2C)c(-c2ccccc2)n1 -0.743%
COc1ccccc1NC(=O)C1CCN(c2cnccn2)CC1 -6.93%
CC(=O)N1CCCc2cc(S(=O)(=O)N3CCN(c4cccc(C(F)(F)F)c4)CC3)ccc21 -15.7%
CCOC(=O)c1ccc(NC(=O)CSc2nc3c([nH]c4ccccc43)c(=O)n2C)cc1 -17.2%
Cc1cn2c(=O)cc(COc3ccccc3NC(=O)c3ccc(Cl)cc3)nc2s1 -20.8%
Cc1ccc(NC(=O)C2CCC(CNS(=O)(=O)c3ccc4c(c3)CCCC(=O)N4)CC2)c(C)c1 (stereo unspecified) -1.05%
Cc1ccccc1-c1noc(-c2cc(-c3ccc(F)cc3)n[nH]2)n1 -7.25%
CCCCc1nc2ccccc2n1CC(=O)N(COCC)c1c(C)cccc1CC 0.793%
Cc1cc(C)cc(NC(=O)C2CCN(S(=O)(=O)c3ccc4c(c3)oc(=O)n4C)CC2)c1 1.15%
Cc1ccc2oc(-c3ccc(Cl)c(NC(=O)c4ccc(OC(C)C)cc4)c3)nc2c1 2.46%
CC(C)c1ccc(Nc2c(-c3ccco3)nc3ccccn23)cc1 0.799%
COc1cc(NC(=O)c2ccc(-n3cnc4cccnc43)cc2)cc(OC)c1 -6.28%
Cc1ccc(S(=O)(=O)N(CC(=O)Nc2ccc3c(c2)OCO3)c2ccc(C)c(Cl)c2)cc1 0.9%
CCOC(=O)c1cc(NC(=O)c2ccc(OC)cc2)c(=O)n2c1oc1ccc(Cl)cc12 -0.478%
CCn1c(CNC(=O)C23CC4CC(CC(C4)C2)C3)nnc1SCC(=O)Nc1ccc(F)cc1 -14.1%
CC1Cc2ccccc2N1C(=O)CSc1nnc(-c2cccc(Cl)c2)o1 (stereo unspecified) -1.33%
O=c1[nH]c2ccc(NCc3ccccc3F)cc2[nH]1 1.4%
CCOc1ccc(CCNC(=O)c2cc3c(=O)n(C)c4ccccc4c3n2C)cc1 1.41%
O=C(CCc1ccccc1)NCc1ccc2c(c1)CCN2C(=O)c1ccc(Cl)cc1 -6.24%
CCc1cccc(NC(=O)CC2Oc3ccc(C)cc3NC2=O)c1 (stereo unspecified) -0.7%
Cc1ccc(NC(=O)CC2Sc3ccccc3NC2=O)c(Br)c1 (stereo unspecified) -28.2%
C=C(C)Cn1c(SCC(=O)Nc2cccc(Cl)c2)nc2sc3c(c2c1=O)CCCC3 -11.1%
O=C(NCCS(=O)(=O)N1CCN(c2cccc(Cl)c2)CC1)c1cc(=O)c2ccccc2o1 -5.91%
CC1=C(c2ccc(C)c(C)c2)S(=O)(=O)N=C1N1CCC(C(=O)NCc2ccc(Cl)cc2)CC1 -0.815%
O=C(NCCC1=CCCCC1)c1ccc2c(c1)N(Cc1ccc(Cl)cc1)C(=O)c1ccccc1S2=O (stereo unspecified) -8.87%
COc1ccc(-n2c(=O)c3c(c4cc(OC)ccc4n3C)n(C)c2=O)cc1 0.393%
CCOc1ccc(NC(=O)Cn2cc(C(=O)c3ccc(CC)cc3)c(=O)c3ccc(C)nc32)cc1 -9.08%
CCOC(=O)c1cccc(NC(=O)c2cnc(N3CCCCC3)c3ccccc23)c1 -5.33%
Cc1ccc(-n2c(=O)c3cccnc3n2CC(=O)NCc2ccc(F)cc2)cc1C 0.569%
Cc1ccc(CNC(=O)CN2CCCN(Cc3ccc(F)cc3)S2(=O)=O)cc1 19.5%
Cc1cc(C)c(/C=C/c2onc(C)c2S(=O)(=O)N2CCC(C(=O)Nc3ccc(Cl)c(C(F)(F)F)c3)CC2)c(C)c1 -13.5%
O=C(COc1ccccc1F)Nc1ccc(Cl)c(-c2nc3ccccc3[nH]2)c1 -20.3%
COc1ccc(NC(=O)CSc2nccn2Cc2ccco2)cc1OC -1.95%
Cc1cccc(Cn2c(=O)n(-c3ccc(Cl)c(Cl)c3)c(=O)c3c(C)c(C)sc32)c1 4.63%
CCOC(=O)c1cnc2ccccc2c1Nc1ccc(N2CCOCC2)cc1 1.66%
CCc1ccc(N2CCn3c2nc2c3c(=O)n(CCc3ccccc3)c(=O)n2C)cc1 -4.73%
Cc1ccc2nc(NC(=O)CSc3nccn3Cc3ccccc3)sc2c1 0%
CCOCCc1nnc(NC(=O)C(=O)c2cc(C)n(-c3cccc(Cl)c3)c2C)s1 3.59%
COc1cc(NC(=O)c2cc(-c3cccc(Cl)c3)on2)c(OC)cc1Cl 2.32%
Clc1ccc(-c2nc3ccccn3c2Nc2ccc3c(c2)OCCO3)s1 -7.96%
Cc1ccc(N(CC(=O)N2CCN(c3cc(Cl)ccc3C)CC2)S(=O)(=O)c2c(C)noc2C)cc1 8.82%
Cc1noc2ncnc(NCc3ccccc3Cl)c12 -25.1%
CCOc1ccc(NC(=O)C(=O)NCCc2csc(-c3ccc(C)cc3)n2)cc1 1.08%
COc1ccc(NC(=O)c2sc3nc(C)c(C(=O)Nc4ccc(C)cc4C)c(-c4cccs4)c3c2N)cc1 -4.03%
Cc1ccc(C)c(N2CCN(C(c3ccc(F)cc3)c3nnc(-c4ccccc4)o3)CC2)c1 (stereo unspecified) -2.93%
CCN(Cc1ccccc1)C(=O)Cn1c(=O)oc2cc(S(=O)(=O)N3CCCCCC3)ccc21 -12.3%
Cc1ccccc1CSc1cn(CC(=O)N2CCCC2)c2ccccc12 0%
CCC(=O)N1CCc2cc(S(=O)(=O)NCCC(=O)Nc3ccc(OC)c(OC)c3)ccc21 -0.961%
COc1cc(-c2nnn(CC(=O)NCc3ccccc3)n2)cc(OC)c1OC -13.6%
COc1ccc(NC(=O)CSc2nnc3c(C)cc4ccccc4n23)cc1 1.64%
Cc1cnc2c(c1SCC(=O)NCc1ccc(F)cc1)c(=O)n(C)c(=O)n2C 2.17%
CCOc1ccc(-c2cc(C(=O)N3CCN(c4ccc(C)cc4)C(C)C3)c3ccccc3n2)cc1 (stereo unspecified) -5.97%
COc1cccc(CNC(=O)CCCn2c(=O)c3cccn3c3cccnc32)c1OC -17.7%
CC(C)(C)c1ccc(OCC(=O)NC(Cc2c[nH]c3ccccc23)C(=O)O)cc1 (stereo unspecified) 1.29%
CCCCn1nc(NC(=O)c2cccc(Cl)c2)c2cc3ccc(C)cc3nc21 -5.01%
CC(=O)Nc1ccc(NS(=O)(=O)c2cc3c4c(c2)CC(=O)N4CCC3)cc1 -2.96%
COc1cc(C(=O)NCCS(=O)(=O)N2CCN(c3ccccc3)CC2)cc(OC)c1OC -2.69%
COc1ccc(-c2cc3nc(C)c(CCC(=O)N4CCN(c5cc(C)ccc5C)CC4)c(C)n3n2)c(OC)c1 -5.31%
Cn1cc(S(=O)(=O)c2ccc(Cl)cc2)c(=O)c2cc(F)c(N3CCOCC3)cc21 -3.11%
CCOc1ccc(NC(=O)CN2CCN(CC(=O)Nc3ccc(OC)cc3)CC2)cc1 -0.401%
COc1ccccc1/C=C/c1nc(C#N)c(N2CCN(c3ccccc3)CC2)o1 -1.77%
COc1ccc(N2CCN(S(=O)(=O)CCNC(=O)c3ccc(OC(C)C)cc3)CC2)cc1 1.52%
Cc1ccc(Nc2c(-c3ccccc3O)nc3cc(C)ccn23)cc1 -17.5%
CN(C(=O)CSc1nc2ccc(NC(=O)COc3ccccc3Cl)cc2s1)c1ccccc1 -7.36%
COc1ccc(-c2cc(C(F)(F)F)nc(NCCc3ccccc3)n2)cc1 0%
COC(=O)c1c(SCC(=O)Nc2cc(F)ccc2F)[nH]c2ccc(C)cc2c1=O 2.34%
O=C(NCCc1ccccc1)c1cc2sccc2n1Cc1ccc(F)cc1 -15%
Cc1c(-c2ccc(Cl)cc2)c(=O)oc2c(CN3CCOCC3)c(O)ccc12 0%
COC(=O)c1cccc(CN2C(=O)SC(Nc3ccc(Br)cc3)C2=O)c1 (stereo unspecified) -2.38%
Cc1ccc(NC(=O)CSc2nc3ccc(NC(=O)c4ccco4)cc3s2)c(C)c1 -2.5%
CSc1cccc(NC(=O)C(c2ccccc2)N2Cc3ccccc3C2=O)c1 (stereo unspecified) -0.0361%
CNC(=O)c1c(NC(=O)c2ccc(S(=O)(=O)N3CCCC(C)C3)cc2)sc2c1CCC2 (stereo unspecified) -3.31%
CCCCOc1ccc(C(=O)Nc2onc3c2CCCC3)cc1 -7.79%
COC(=O)C1CCN(C(c2ccccc2Cl)c2sc3nc(-c4ccco4)nn3c2O)CC1 (stereo unspecified) -1.2%
CCOC(=O)CN1C(C(=O)c2ccccc2)=C(OC(=O)c2ccccc2)c2ccccc2S1(=O)=O -12.7%
Cc1cc(C)cc(NC(=O)Nc2cccs2)c1 1.38%
Cc1ccc(NC(=O)C2CCCN(S(=O)(=O)c3ccc(F)cc3)C2)cc1 (stereo unspecified) 2.36%
Cc1ccc(C)c(NC(=O)Cn2cnc3nc4c(cc3c2=O)CCCC4)c1 3.04%
COc1ccccc1N1CCN(C(=O)C2CCCN(S(=O)(=O)c3ccc4c(c3)oc(=O)n4C)C2)CC1 (stereo unspecified) -13.2%
CCOC(=O)c1cccc(NC(=O)c2ccc3snnc3c2)c1 -3.52%
CCc1ccc(-n2c(N3CCN(c4cccc(C)c4C)CC3)nc3ccccc3c2=O)cc1 -3.33%
COC(=O)c1sccc1S(=O)(=O)N(CC(=O)NCc1ccccc1)c1ccc(C)cc1 -2.99%
Cc1ccc(Nc2nc(N)nc(N)c2S(=O)(=O)c2ccccc2)cc1 -22.4%
COc1ccccc1C(=O)Nc1nc(-c2ccc(Br)cc2)ns1 -4.11%
Cc1nc2ccn(Cc3cccnc3)c(=O)c2cc1C(=O)N1CCN(c2ccccc2)CC1 8.35%
CC(=O)Nc1ccccc1-c1nc2ccccc2n(C(C)C(=O)c2ccc(C)c(C)c2)c1=O (stereo unspecified) -20.3%
CCOc1ccc(CC(=O)NC2CC(=O)N(c3ccc4c(c3)OCCO4)C2)cc1 (stereo unspecified) -0.708%
CCN(c1ccccc1)S(=O)(=O)c1nnc(NC(=O)COc2ccccc2F)s1 -27.3%
COc1cc(C2C(=O)N(C3CCC(C)CC3)CC(=O)N2CCc2ccc(Cl)cc2)ccc1OC(C)C (stereo unspecified) 2.01%
Cc1ccc(NC(=O)CN(C)S(=O)(=O)c2cccc3nsnc23)c(C)c1 0.686%
COc1ccc(-c2[nH]ncc2C(=O)NCc2ccccc2OC)cc1 -16.9%
